Data as given in patent US20180193452A1 (NEMOURS FOUNDATION, published 2018).

Biological target: transmembrane form of IgE (mIgE) on U266 cells (human, UniProt P01854 1-546)
Experiment: cell-based or functional assay

Chain of UniProt P01854 (P01854 whole entry): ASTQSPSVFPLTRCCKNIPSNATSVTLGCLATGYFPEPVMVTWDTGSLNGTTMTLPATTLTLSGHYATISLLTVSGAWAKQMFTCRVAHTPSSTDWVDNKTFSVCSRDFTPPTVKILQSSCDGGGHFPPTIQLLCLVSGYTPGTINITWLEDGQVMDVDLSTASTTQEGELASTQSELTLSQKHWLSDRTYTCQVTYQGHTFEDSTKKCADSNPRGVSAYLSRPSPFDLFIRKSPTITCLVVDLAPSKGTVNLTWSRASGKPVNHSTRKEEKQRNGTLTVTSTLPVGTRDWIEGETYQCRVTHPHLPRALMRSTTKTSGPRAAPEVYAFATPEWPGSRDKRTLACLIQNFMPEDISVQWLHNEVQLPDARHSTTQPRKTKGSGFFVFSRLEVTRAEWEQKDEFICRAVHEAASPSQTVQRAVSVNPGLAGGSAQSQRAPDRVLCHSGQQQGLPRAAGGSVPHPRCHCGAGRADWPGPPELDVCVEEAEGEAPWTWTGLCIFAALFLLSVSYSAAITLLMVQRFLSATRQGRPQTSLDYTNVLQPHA

B1: M2 CAR (FcεRIα extracellular domain K117D+D159A fused to CD3ζ) (receptor)
chain: VPQKPKVSLNPPWNRIFKGENVTLTCNGNNFFEVSSTKWFHNGSLSEETNSSLNIVNAKFEDSGEYKCQHQQVNESEPVYLEVFSDWLLLQASAEVVMEGQPLFLRCHGWRNWDVYDVIYYKDGEALKYWYENHNISITNATVEDSGTYYCTGKVWQLAYESEPLNITVIKAPREKYWLQGGSGG[about 150 residues not printed]
Which “killing of U266-luci cells by M2 CAR+ human CD8+ T cells (luciferase, specific lysis)” value does the source give for B1 here?
The value was over 3 fold.
